The other results are listed elsewhere or left out.

In one assay the test system is HSkMC. Kind of assay: cytotoxicity call (relative viability < 0.9). Particulars: 10 µM.
The subject of the next assay is HepG2. Kind of assay: cytotoxicity call (relative viability < 0.9). Particulars: 10 µM.
A further assay deals with S. aureus RN4220. Kind of assay: growth inhibition call (relative growth <= 0.2). Particulars: 50 µM.

For the molecule `C/C=C/c1cnc2c(c1)C(=O)N([C@H](C)CO)C[C@@H](C)[C@H](CN(C)S(=O)(=O)c1ccc(OC)cc1)O2`, the cytotoxicity call with HSkMC and with HepG2 was “inactive” each time. For the same molecule, the growth inhibition call with S. aureus RN4220 was “inactive”.

For `O=C(NCCC1=CCCCC1)c1sc2ccccc2c1Cl`, the cytotoxicity call in the assay with HSkMC and in the assay on HepG2 was “inactive” throughout. Moreover, the growth inhibition call in the assay with S. aureus RN4220 was “inactive”.

Regarding `CN(C)Cc1cn(CC[C@H]2CC[C@@H](NS(=O)(=O)c3ccccc3)[C@@H](CO)O2)nn1`, the cytotoxicity call in the assay on HSkMC and in the assay on HepG2 was “inactive” in each case. The growth inhibition call in the assay on S. aureus RN4220 was “inactive”.

`NC(=O)NCC#Cc1ccc2c(c1)[C@]1(C(=O)N2)[C@H](C(N)=O)[C@H]2C(=O)O[C@H](c3ccccc3)[C@H](c3ccccc3)N2[C@@H]1c1ccccc1OCCO`: the cytotoxicity call with HSkMC and in the assay on HepG2 was “inactive” in each case. Further, in the assay with S. aureus RN4220, the growth inhibition call was “inactive”.

For `O=C(N[C@H](c1ccc(Cl)cc1)c1cnccn1)C1CCN(Cc2ccc(Oc3ccccc3)cc2)CC1`, in the assay on HSkMC, the cytotoxicity call was “inactive”. Besides, the cytotoxicity call in the assay on HepG2 is “active”. In addition, the growth inhibition call in the assay with S. aureus RN4220 is “active”.

For the molecule `CC(C)(C)[S@](=O)N1Cc2cc(C(=O)N3CCCCC3)nc(-c3cccc(-c4ccc(C#N)cc4)c3)c2[C@@H]1CCO`, the cytotoxicity call in the assay with HSkMC and with HepG2 was “inactive” in each case. Moreover, in the assay on S. aureus RN4220, the growth inhibition call was “inactive”.

In the case of `C[C@H](CO)N1C[C@H](C)[C@@H](CN(C)Cc2ccc(Oc3ccccc3)cc2)Oc2c(NC(=O)Nc3ccc4c(c3)OCO4)cccc2C1=O`, the cytotoxicity call in the assay on HSkMC and in the assay on HepG2 was “inactive” throughout. Further, the growth inhibition call in the assay on S. aureus RN4220 is “inactive”.

Take `Cc1noc(C)c1NC(=O)N(C)C[C@@H]1Oc2c(NS(=O)(=O)c3ccccc3)cccc2C(=O)N([C@@H](C)CO)C[C@@H]1C`: the cytotoxicity call in the assay with HSkMC and in the assay on HepG2 was “inactive” in each case. Besides, in the assay on S. aureus RN4220, the growth inhibition call was “inactive”.

As to `C[C@H]1CN([C@@H](C)CO)C(=O)Cc2cc(NS(=O)(=O)c3ccccc3)ccc2O[C@@H]1CN(C)Cc1ccc(Cl)c(Cl)c1`, in the assay on HSkMC, the cytotoxicity call was “inactive”. Also, the cytotoxicity call with HepG2 is “active”. In addition, the growth inhibition call with S. aureus RN4220 is “inactive”.

As for `C[C@@H]1CN([C@@H](C)CO)C(=O)Cc2cc(NS(=O)(=O)c3cn(C)cn3)ccc2O[C@H]1CN(C)S(=O)(=O)c1ccc(F)cc1`, the cytotoxicity call in the assay with HSkMC and in the assay on HepG2 was “inactive” each time. Besides, the growth inhibition call in the assay on S. aureus RN4220 is “inactive”.

For `O=C(C[C@H]1CC[C@H]2[C@@H](COC[C@@H](O)CN2C(=O)c2ccccc2)O1)N1CCOCC1`, the cytotoxicity call in the assay on HSkMC and in the assay on HepG2 was “inactive” throughout. Moreover, the growth inhibition call in the assay on S. aureus RN4220 is “inactive”.

Turning to `O=C(N[C@H]1CC=CC[C@H](CC(=O)N(CCO)Cc2ccccc2)C(=O)NCC(c2ccccc2)OC1=O)OCC1c2ccccc2-c2ccccc21` (stereo partly specified), the cytotoxicity call in the assay with HSkMC and in the assay with HepG2 was “inactive” in each case. The growth inhibition call in the assay on S. aureus RN4220 was “inactive”.

Regarding `CCNC(=O)C[C@H]1CC[C@H](NC(=O)C2CC2)[C@@H](CO)O1`, the cytotoxicity call in the assay with HSkMC and in the assay on HepG2 was “inactive” throughout. For the same molecule, the growth inhibition call in the assay on S. aureus RN4220 was “inactive”.

For `Cc1noc(C)c1S(=O)(=O)N(C)C[C@H]1Oc2ccc(NC(=O)Nc3ccccc3)cc2CC(=O)N([C@H](C)CO)C[C@H]1C`, the cytotoxicity call in the assay with HSkMC and with HepG2 was “inactive” in each case. For the same molecule, the growth inhibition call in the assay on S. aureus RN4220 is “inactive”.

As to `C[C@H]1CN([C@@H](C)CO)C(=O)Cc2cc(NC(=O)CCCCCC(=O)Nc3ccccc3N)ccc2O[C@@H]1CN(C)CC1CCCCC1`, the cytotoxicity call in the assay on HSkMC and with HepG2 was “inactive” in each case. Besides, the growth inhibition call in the assay on S. aureus RN4220 is “inactive”.

On to `COCC#Cc1ccc2c(c1)O[C@H](CN(C)S(=O)(=O)c1cccc(OC)c1)[C@@H](C)CN([C@H](C)CO)S2(=O)=O`, for which the cytotoxicity call with HSkMC and with HepG2 was “inactive” each time. Also, in the assay with S. aureus RN4220, the growth inhibition call was “inactive”.

In the case of `COc1ccc(S(=O)(=O)Nc2ccc3c(c2)CC(=O)N([C@H](C)CO)C[C@H](C)[C@H](CN(C)S(=O)(=O)c2ccccc2)O3)cc1`, the cytotoxicity call with HSkMC and in the assay on HepG2 was “inactive” throughout. For the same molecule, in the assay with S. aureus RN4220, the growth inhibition call is “inactive”.

With `C[C@@H]1CN([C@@H](C)CO)C(=O)c2cc(NS(=O)(=O)c3ccc(Cl)cc3)ccc2O[C@@H]1CN(C)C(=O)Nc1ccc(C(F)(F)F)cc1`, the cytotoxicity call in the assay with HSkMC and in the assay with HepG2 was “inactive” in each case. The growth inhibition call with S. aureus RN4220 is “inactive”.

Turning to `NC(=O)c1cnc2n(c1=O)CCS2`, the cytotoxicity call in the assay with HSkMC and in the assay with HepG2 was “inactive” each time. The growth inhibition call in the assay with S. aureus RN4220 was “inactive”.

Regarding `C[C@@H]1CN([C@@H](C)CO)C(=O)c2cc(NC(=O)Nc3ccccc3)ccc2O[C@@H](C)CCCCO[C@H]1CN(C)C(=O)c1ccccc1`, the cytotoxicity call in the assay on HSkMC and in the assay with HepG2 was “inactive” in each case. Besides, in the assay on S. aureus RN4220, the growth inhibition call is “inactive”.

Turning to `Cc1ccc(S(=O)(=O)N(C)C[C@H]2Oc3c(NC(=O)Nc4ccc(C(F)(F)F)cc4)cccc3C(=O)N([C@@H](C)CO)C[C@H]2C)cc1`, the cytotoxicity call with HSkMC and in the assay on HepG2 was “active” throughout. Also, in the assay on S. aureus RN4220, the growth inhibition call was “inactive”.

Regarding `C[C@H](CO)N1C[C@H](C)[C@@H](CN(C)Cc2ccc(Cl)c(Cl)c2)Oc2ccc(NC(=O)NC3CCCCC3)cc2C1=O`, the cytotoxicity call in the assay on HSkMC and in the assay on HepG2 was “inactive” each time. Besides, the growth inhibition call in the assay on S. aureus RN4220 was “inactive”.

Take `C[C@@H]1CCCCO[C@H](CN(C)C(=O)Nc2cccc3ccccc23)[C@@H](C)CN([C@@H](C)CO)C(=O)c2cc(NC(=O)CCCN(C)C)ccc2O1`: the cytotoxicity call in the assay with HSkMC and with HepG2 was “inactive” in each case. The growth inhibition call with S. aureus RN4220 is “inactive”.

For the molecule `CO[C@H]1CN(C)C(=O)c2ccc(NC(=O)CC(F)(F)F)cc2OC[C@H](C)N(C(=O)C2CCOCC2)C[C@@H]1C`, the cytotoxicity call with HSkMC and in the assay on HepG2 was “inactive” in each case. For the same molecule, the growth inhibition call in the assay with S. aureus RN4220 is “inactive”.

With `CN(c1ccc(N)cc1[N+](=O)[O-])S(C)(=O)=O`, the cytotoxicity call in the assay on HSkMC (human skeletal muscle cells) and in the assay on HepG2 was “inactive” throughout. Besides, the growth inhibition call with S. aureus RN4220 is “inactive”.

In the case of `O=C(C[C@H]1C=C[C@H](NC(=O)c2cccnc2)[C@H](CO)O1)NCCN1CCCCC1`, the cytotoxicity call in the assay with HSkMC and in the assay on HepG2 was “inactive” throughout. Besides, the growth inhibition call in the assay on S. aureus RN4220 was “inactive”.

As for `COCCNC(=O)C[C@@H]1C[C@H]2c3cc(NS(C)(=O)=O)ccc3O[C@H]2[C@H](CO)O1`, the cytotoxicity call in the assay with HSkMC and in the assay with HepG2 was “inactive” in each case. Besides, the growth inhibition call with S. aureus RN4220 is “inactive”.

For the origin of these results see the antibiotic and cytotoxicity screens of Wong et al. (2023).
